From PubChem BioAssay AID1454 (National Center for Advancing Translational Sciences (NCATS), 2008)
The whole screen tested about 130,000 compounds, of which about 550 (0.42%) were called active. Inconclusive means that the source gave no clear call. Such entries were picked first, then a sample of the others. Calls come from the whole dose curve; as a rule, active = well fitted inhibition curve with a large enough effect; inconclusive = small, poorly fitted or top-dose-only effect, or effect the other way; inactive = flat fitted curve, though single readings scatter. Potencies of inconclusive entries are left out as doubtful fits.

Assay: qHTS Assay for Inhibitors of the ERK Signaling Pathway using a Homogeneous Screening Assay; Stimulation with EGF; note: nearly all actives have a fitted effect of over 55% in size;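 for activity change, negative = inhibition: plate controls were stimulated vehicle wells for no effect and unstimulated vehicle basal for full effect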
Settings: HEK293-V1b, EGF-stimulated phospho-ERK AlphaScreen; activity change, negative = inhibition: at the top concentration
Outline: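 HEK293 cells stably expressing V1b receptor, serum-reduced (1% FBS) overnight, got compound for 30 min at 37C, then 25 nM EGF for 5 min. Lysate phospho-ERK read by AlphaScreen SureFire; AC50 from Hill fits.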
Potency is the fitted concentration of half-maximal effect; tags give direction and shape of the fitted curve.

Row | SMILES | Potency | activity change, negative = inhibition
1 | CCn1cc(C(=O)O)c(=O)c2cnc(N3CCN(C(=S)NC(=O)c4ccc(Br)cc4)CC3)nc21 | inconclusive [inhibitor, full curve] | 
2 | COC(=O)[C@@H](NC(=O)O[C@H]1C(=O)c2cc(OC)ccc2O[C@@H]1c1ccc(OC)c(Br)c1)C(C)C |  | inactive: 2.17%
3 | Cc1ccc(-c2ccc(/C=C(\C#N)C(N)=S)o2)c([N+](=O)[O-])c1 | inconclusive [inhibitor, single point] | 
4 | CC(C)CNC(=O)c1cccc(NC(=O)c2ccc(Cl)c([N+](=O)[O-])c2)c1 | inconclusive [inhibitor, single point] | 
5 | CC(C)c1ccc(/C=C/C(=O)O)cc1 | inconclusive [inhibitor, partial curve] | 
6 | CCCOc1ccc(C(=O)ON=C2CCN(C)CC2)cc1 | inconclusive [inhibitor, single point] | 
7 | COc1ccc(N=C2C(=Nc3ccc(OC)cc3)N(c3ccccc3)C(=S)N2C(=O)c2ccc(Cl)cc2)cc1 | active: 2.24 µM | 
8 | COc1ccc(N=C2CC(C)(C)CC(=O)/C2=C(/O)c2ccccc2)cc1 | inconclusive [inhibitor, partial curve] | 
9 | CCC1(C)Cc2c(sc3nc(SCC(=O)c4ccccc4)[nH]c(=O)c23)CO1 (configuration not stated) | inconclusive [inhibitor, partial curve] | 
10 | COc1ccccc1/C=N\Nc1cc(C)nc(-n2nc(C)cc2C)n1 | inconclusive [inhibitor, single point] | 
11 | O=C1N/C(=N\S(=O)(=O)Cc2ccccc2)S/C1=C/c1cc([N+](=O)[O-])ccc1O | inconclusive [inhibitor, single point] | 
12 | COc1ccc(C(CCNCc2ccc(N(C)C)cc2)C(C)C)cc1 (configuration not stated) | inconclusive [inhibitor, partial curve] | 
13 | OC[C@H]1O[C@@H](Oc2cc(O)cc(/C=C/c3ccc(O)cc3)c2)[C@H](O)[C@@H](O)[C@@H]1O | inconclusive [inhibitor, single point] | 
14 | COc1ccc(CCNC(=O)c2ccc(-c3cccc([N+](=O)[O-])c3)o2)cc1OC | inconclusive [inhibitor, partial curve] | 
15 | COc1ccc(C2c3ccc4ccccc4c3Oc3ncn(CCN4CCOCC4)c(=N)c32)cc1OC (configuration not stated) |  | inactive: -3.4% [at 57.5 µM]
16 | CCN1C(=O)/C(=C/C=C2\N(CC)c3cc(S(=O)(=O)N(C)C)ccc3N2c2ccccc2)SC1=S | inconclusive [inhibitor, partial curve] | 
17 | O=C(/C=C\c1ccccc1)Nc1ccc(NC(=O)c2ccco2)cc1 | inconclusive [inhibitor, partial curve] | 
18 | CC(C)CCn1cnc2c(sc3nc4c(cc32)CSC(C)(C)C4)c1=O | inconclusive [inhibitor, single point] | 
19 | COc1ccc(C2CNC(=O)C2)cc1OC1CCCC1 (configuration not stated) | inconclusive [activator, single point] | 
20 | CCC(C)(C)NC(=O)C(c1cccnc1)N(C(=O)c1csnn1)c1ccc(C)cc1 (configuration not stated) | inconclusive [activator, full curve, poor fit] | 
21 | C=C[C@]1(C)CC(=O)[C@@]2(O)[C@@]3(C)C(O)CCC(C)(C)C3C(O)C(OC(C)=O)[C@@]2(C)O1 (some centres not stated) | inconclusive [inhibitor, full curve] | 

Row | SMILES | Potency | activity change, negative = inhibition
22 | CC(=O)N[C@@H]1C(O)OC(CO)C(O)C1O (some centres not stated) |  | inactive: -8.85%
23 | O=C(Cn1c(CN2CCCCC2)nc2ccccc2c1=O)NC1CCCCC1 | inconclusive [inhibitor, full curve] | 
24 | Cc1ccc(-c2nnc(N3CCC(C)CC3)c3ccccc23)cc1C | inconclusive [inhibitor, partial curve] | 
25 | NS(=O)(=O)c1ccc(NC(=O)COc2ccc(C(=O)c3ccc(F)cc3)cc2)cc1 | inconclusive [inhibitor, single point] | 
26 | O=[N+]([O-])c1cc(Br)c(O)c(/C=N/Nc2nc3ccccc3s2)c1 | inconclusive [inhibitor, single point] | 
27 | Cc1ccccc1Nc1oc(-c2ccccc2)nc1CCc1ccccc1 |  | inactive: -11%
28 | Nc1nc(N)c(C=Nc2ccc(Br)cc2)c(Nc2ccc(Br)cc2)n1 | inconclusive [inhibitor, single point] | 
29 | O=C(NNc1c2ccccc2nc2ccccc12)c1ccccc1O | inconclusive [inhibitor, single point] | 
30 | CCCOc1ccc(C(=O)NNC(=S)NC(=O)c2ccco2)cc1 |  | inactive: -0.205% [at 57.5 µM]
31 | O=C(c1ccc(COc2ccc(Br)cc2)o1)N1N=C(C(F)F)CC1(O)C(F)F (configuration not stated) | inconclusive [inhibitor, single point] | 
32 | COc1cccc(CN=C2Nc3ccccc3CS2)c1 |  | inactive: -8.95%
33 | Nc1nc(-c2ccccc2)c(N=Nc2ccccc2Cl)s1 | active: 17.8 µM | 
34 | COc1ccc(N=C2SCC(c3ccccc3)=NN2C)cc1 | inconclusive [inhibitor, partial curve] | 
35 | O=[N+]([O-])c1cc(C=Nc2ccc3ccccc3c2)ccc1Br | inconclusive [inhibitor, single point] | 
36 | C=CCN1C=C2C(=O)C(C)(OC(=O)CCc3ccccc3)C(=O)C=C2C=C1c1ccc(C#N)cc1 (configuration not stated) | inconclusive [inhibitor, partial curve] | 
37 | COc1ccc(NC2=C(Cl)C(=O)N(c3ccccc3)C2=O)c(OC)c1 | inconclusive [inhibitor, single point] | 
38 | O=C(CN(Cc1ccccc1)C(=O)c1cccc([N+](=O)[O-])c1)Nc1c(Cl)cc(Cl)cc1Cl | inconclusive [inhibitor, partial curve] | 
39 | CN(C)NC(=O)c1ccsc1NC(=O)c1ccc(S(=O)(=O)N2CCCC2)cc1 |  | inactive: -1.9% [at 57.5 µM]
40 | CN(C)CCOC(=O)c1ccc2c(c1)S(=O)(=O)c1ccccc1C2=O |  | inactive: 0.635% [at 57.5 µM]
41 | c1ccc(-c2cccc(N3CCC4(CCNCC4)CC3)c2)cc1 | inconclusive [inhibitor, partial curve, poor fit] | 
42 | CC(C)C[C@H](NC(=O)NCCC1=CCCCC1)C(=O)O | inconclusive [inhibitor, full curve, poor fit] | 

Row | SMILES | Potency | activity change, negative = inhibition
43 | CC1CCC/C(=N\NC(=S)Nc2ccccc2)C1 (configuration not stated) | inconclusive [inhibitor, partial curve] | 
44 | O=C1C2C3C=CC(C3)C2C(=O)N1CCCCCCN1C(=O)C2C3C=CC(C3)C2C1=O (configuration not stated) |  | inactive: 11.8%
45 | CCCCC(=O)NC(c1ccccc1OC)c1ccc2cccnc2c1O (configuration not stated) | inconclusive [inhibitor, single point] | 
46 | Cc1cccc(OC(=O)CCN2C(=O)C3C4C=CC(C5CC45)C3C2=O)c1C (configuration not stated) | inconclusive [inhibitor, single point] | 
47 | CCOC(=O)c1c(C)[nH]c(C)c1C(=O)COC(=O)/C=C/c1ccc(OC(F)F)cc1 | inconclusive [inhibitor, single point] | 
48 | CC[C@]1(O)C[C@@H]2CN(CCc3c([nH]c4ccccc34)[C@](C(=O)OC)(c3cc4c(cc3OC)N(C=O)[C@H]3[C@@](O)(C(=O)OC)[C@H](C(=O)OC)[C@@]5(CC)C=CCN6CC[C@]43[C@H]65)C2)C1 |  | inactive: 5.75%
49 | O=C(NCc1nc2ccccc2[nH]1)[C@H]1C[C@@H]1[C@H](NP(=O)(c1ccccc1)c1ccccc1)c1ccccc1 | inconclusive [inhibitor, single point] | 
50 | COc1ccc(OC)c(CN2C(=O)c3ccccc3C2C(=O)NCC2CCCO2)c1 (configuration not stated) | inconclusive [inhibitor, full curve, poor fit] | 
51 | CCOc1ncccc1C(=O)N1CCN(C(c2ccccc2)c2ccccc2)CC1 | inconclusive [inhibitor, single point] | 
52 | O=[N+]([O-])c1cccc(-c2ccc(SCc3ccccn3)nn2)c1 | inconclusive [inhibitor, single point] | 
53 | CC#C[C@]1(O)CC[C@H]2[C@@H]3CCC4=CC(=O)CCC4=C3[C@H](c3ccc(N(C)C)cc3)C[C@@]21C |  | inactive: -9.73%
54 | COCCN(CCOC)c1nc(C)nc2c1nc(-c1ccccc1)n2CC1CCN(C)CC1 |  | inactive: 4.33%
55 | COc1ccc(/C=N/NC(=S)Nc2ccccc2[N+](=O)[O-])cc1O | inconclusive [inhibitor, single point] | 
56 | O=C(Cc1cccs1)NCc1cccc(F)c1 | inconclusive [inhibitor, single point] | 
57 | CCOC(=O)/C(C#N)=C/C=C1\C=Cc2ccccc2N1CC | active: 15.8 µM | 
58 | Cc1cccc(NC(=S)N/N=C/c2c[nH]c3ccccc23)c1 | inconclusive [inhibitor, single point] | 
59 | Cc1cccc(N2CCN(CC(O)COc3ccc(Cl)cc3)CC2)c1 (configuration not stated) | inconclusive [inhibitor, partial curve] | 
60 | C/C(=N\OCc1nc2ccccc2c(=O)n1/N=C/c1cc(C)cc([N+](=O)[O-])c1O)c1ccccc1 | inconclusive [inhibitor, single point] | 
61 | CCN(CC)CCn1c(C)nc2c(sc3nc4c(cc32)COC(C)(C)C4)c1=O | inconclusive [inhibitor, single point] | 
62 | O=C(COC(=O)c1cc(S(=O)(=O)NCc2ccccc2)ccc1O)c1cc2ccccc2o1 | inconclusive [inhibitor, partial curve] | 
